Results: the RNAGym collection of RNA variant scans (doi:10.1093/nar/gkz1192)
Read counts are not given, so values of variants with three or more changes are uncertain.

B1: CPEB3 Ribozyme (parent)
chain: UAACAGGGGGCCACAGCAGAAGCGUUCACGUCGCAGCCCCUGUCAGAUUCUGGUGAAUCUGCGAAUUCUGCUGUAUAUCUC

Variants of: B1
Experiment: self-cleavage, relative activity (ratio to wild type); higher = more cleavage; in vitro, sequencing
Outline: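 Relative activity was defined as the cleaved/total read fraction for a variant divided by the same fraction for the unmutated ribozyme. CPEB3 self-cleaving ribozyme libraries were made by rounds of error-prone PCR, barcoded, and transcribed in vitro with T7 RNA polymerase for 5 hours at 37°C, and cleavage ran through transcription plus a 15 min DNase I step before EDTA. Illumina sequencing of template-switched reverse transcripts gave the reads, and DNA sequencing mapped the barcodes. Averages come from three batches, using variants with at least 5 reads.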

Question: For C27G A45G A64U U78A, which self-cleavage is on record?
Answer: 0.08

Question: For A28G A35G U78C, which self-cleavage is on record?
Answer: 1.12

Question: With A28G C32U A35U A56U as the variant, how does the self-cleavage read?
Answer: 0.06

Question: With C27U U43C U60A A65G U78C as the variant, how does the self-cleavage read?
Answer: 0.09

Question: With A28C A35G A45G C62U as the variant, how does the self-cleavage read?
Answer: 0.15

Question: For A28C C38U G46A, which self-cleavage is on record?
Answer: 0.06

Question: Which self-cleavage does the source give for A28C A35U A57U U67C G73U U78A here?
Answer: 0.04

Question: Which self-cleavage does the source give for C27A C32U U41C U58G here?
Answer: 0.12

Question: For C27G C32A U72C C81U, which self-cleavage is on record?
Answer: 0.22

Question: For A28G A64G U72A U80A, which self-cleavage is on record?
Answer: 0.26

Question: With A28G A35U A45C U60A U69C as the variant, how does the self-cleavage read?
Answer: 0.09

Question: Which self-cleavage does the source give for A28G A56G G63C U72A U80A here?
Answer: 0.33

Question: Which self-cleavage does the source give for C27U U49A U58C U72C here?
Answer: 0.07

Question: With A28C C37A A75G as the variant, how does the self-cleavage read?
Answer: 0.15

Question: Which self-cleavage does the source give for C27U A57G U72A here?
Answer: 0.27

Question: With A28G C29U G42A U43G as the variant, how does the self-cleavage read?
Answer: 0.28

Question: With A28G C29U C37A A45U A57G A64U as the variant, how does the self-cleavage read?
Answer: 0.08

Question: For A28G A57G U74C, which self-cleavage is on record?
Answer: 0.76

Question: With A28G C38G A45G U51A U60C U72C as the variant, how does the self-cleavage read?
Answer: 0.02

Question: Which self-cleavage does the source give for C27U U54C U60A U67A C79A here?
Answer: 0.07

Question: For A28G C29U U69A, which self-cleavage is on record?
Answer: 0.13

Question: For A28C U41A U49A U69C U80A, which self-cleavage is on record?
Answer: 0.19

Question: For C27G U51C A57U A64G U80C, which self-cleavage is on record?
Answer: 0.1

Question: For A28G C38A A75G, which self-cleavage is on record?
Answer: 0.24

Question: With C27U C39U A57U U66C as the variant, how does the self-cleavage read?
Answer: 0.09

Question: For A28C U48C U51A, which self-cleavage is on record?
Answer: 0.13

Question: Which self-cleavage does the source give for A28G C34U U43G C59A U69A here?
Answer: 0.1

Question: With C27U A35G A47G as the variant, how does the self-cleavage read?
Answer: 0.49

Question: For C27A U43C U67A, which self-cleavage is on record?
Answer: 0.14

Question: Which self-cleavage does the source give for A28C U41C U72A G73A here?
Answer: 0.37

Question: For A28G A56U U60A U66C U69C U78C, which self-cleavage is on record?
Answer: 0.11

Question: Which self-cleavage does the source give for C27A C32U U58C U76C here?
Answer: 0.05

Question: With A28C A35G U41A U43C U54A G63A U80C as the variant, how does the self-cleavage read?
Answer: 0.07

Question: For A28C C39A U51C, which self-cleavage is on record?
Answer: 0.14

Question: With C27A G30A A47G as the variant, how does the self-cleavage read?
Answer: 0.1

Question: For A28G C37U U48C U51A, which self-cleavage is on record?
Answer: 0.06

Question: With A28G A35U U41A A75U as the variant, how does the self-cleavage read?
Answer: 0.16

Question: Which self-cleavage does the source give for A28G A35G A57U here?
Answer: 0.32

Question: Which self-cleavage does the source give for A28G A35G A57G here?
Answer: 1.01

Question: For C27A U31A A47G, which self-cleavage is on record?
Answer: 0.13

Question: With A28C U31C C37U U69C U78C C81U as the variant, how does the self-cleavage read?
Answer: 0.06

Question: With A28G C40U G42U U54A U80A as the variant, how does the self-cleavage read?
Answer: 0.09

Question: Which self-cleavage does the source give for A28C U51G U58A U80C here?
Answer: 0.16

Question: For A28G A35G U69A, which self-cleavage is on record?
Answer: 0.56

Question: Which self-cleavage does the source give for A28G C37U U48A U72A here?
Answer: 0.16

Question: Which self-cleavage does the source give for A28G C40U U41G U76A here?
Answer: 0.19

Question: With A28G G33A A35G U49C U51A U78C as the variant, how does the self-cleavage read?
Answer: 0.2

Question: Which self-cleavage does the source give for A28C U41G A45G U60A here?
Answer: 0.24

Question: For A28G C34U A56G U80C, which self-cleavage is on record?
Answer: 0.12

Question: For C27U A64G A75G, which self-cleavage is on record?
Answer: 0.13

Question: With A28C U41C U43A as the variant, how does the self-cleavage read?
Answer: 0.18

Question: Which self-cleavage does the source give for C27A U48C U72A here?
Answer: 0.13

Question: For C27A G53A U69A, which self-cleavage is on record?
Answer: 0.19

Question: Which self-cleavage does the source give for A28G A35U C40A U48C U66C here?
Answer: 0.07

Question: With A28C U54C A65G as the variant, how does the self-cleavage read?
Answer: 0.11

Question: With A28G A45G A64U U72C as the variant, how does the self-cleavage read?
Answer: 0.28

Question: With A28G A47G U54A A77U as the variant, how does the self-cleavage read?
Answer: 0.82

Question: For C27U C34U A47G A64U, which self-cleavage is on record?
Answer: 0.18

Question: For A28C A45G U78A, which self-cleavage is on record?
Answer: 0.21

Question: With A28G A57G C62A as the variant, how does the self-cleavage read?
Answer: 0.1

Question: Which self-cleavage does the source give for C27A C29G U41C G52A A56G U66C here?
Answer: 0.09

Question: For C27A G46C U48C A64G, which self-cleavage is on record?
Answer: 0.14

Question: For A28C U49C A75G, which self-cleavage is on record?
Answer: 0.14

Question: For C27U U41C A57G, which self-cleavage is on record?
Answer: 0.15

Question: With A28C A35G A65G as the variant, how does the self-cleavage read?
Answer: 0.42

Question: For A28C G36U U58C, which self-cleavage is on record?
Answer: 0.09

Question: With A28G C38A A57G U69G as the variant, how does the self-cleavage read?
Answer: 0.07

Question: For A28G A45G A64U, which self-cleavage is on record?
Answer: 0.29

Question: Which self-cleavage does the source give for A28G A45G A64G here?
Answer: 0.2

Question: With C27U C50A A57G A75G U80C as the variant, how does the self-cleavage read?
Answer: 0.05

Question: For A28G C37A U74C, which self-cleavage is on record?
Answer: 0.13

Question: For A28G A35U A64U U76C, which self-cleavage is on record?
Answer: 0.11

Question: For A28G C32U U48C U51C A56U, which self-cleavage is on record?
Answer: 0.17

Question: For A28C C39U U54A A65G, which self-cleavage is on record?
Answer: 0.18

Question: Which self-cleavage does the source give for A28G C40G A47G U72G here?
Answer: 0.48

Question: For A28G A35U U41C A56G U66C U72C U78C, which self-cleavage is on record?
Answer: 0.04

Question: With C27U C37U G63U U66C U72A as the variant, how does the self-cleavage read?
Answer: 0.07

Question: With A28G G30A A56U U58C U66C U78C as the variant, how does the self-cleavage read?
Answer: 0.04

Question: Which self-cleavage does the source give for A28G C37U U76A here?
Answer: 0.4

Question: With C27U A28G G30A G33C C38U A57C as the variant, how does the self-cleavage read?
Answer: 0.2

Question: Which self-cleavage does the source give for A28C U31C U58A here?
Answer: 0.19

Question: Which self-cleavage does the source give for A28G C29U G55A A64G here?
Answer: 0.16

Question: For A28C A35U A45G, which self-cleavage is on record?
Answer: 0.2
